# The other results are listed elsewhere or left out.
# B1: SAOUHSC 00176 (Staphylococcus aureus) (protein)
# chain: MSKILKCITLAVVMLLIVTACGPNRSKEDIDKALNKDNSKDKPNQLTMWVDGDKQMAFYKKITDQYTKKTGIKVKLVNIGQNDQLENISLDAPAGKGPDIFFLAHDNTGSAYLQGLAAEIKLSKDELKGFNKQALKAMNYDNKQLALPAIVETTALFYNKKLVKNAPQTLEEVEANAAKLTDSKKKQYGMLFDAKNFYFNYPFLFGNDDYIFKKNGSEYDIHQLGLNSKHVVKNAERLQKWYDKGYLPKAATHDVMIGLFKEGKVGQFVTGPWNINEYQETFGKDLGVTTLPTDGGKPMKPFLGVRGWYLSEYSKHKYWAKDLMLYITSKDTLQKYTDEMSEITGRVDVKSSNPNLKVFEKQARHAEPMPNIPEMRQVWEPMGNASIFISNGKNPKQALDEATNDITQNIKILHPSQNDKKGD
# Key:
# Test in all cases: glycan array binding signal (z-score within array); higher = stronger binding
# Conditions in all cases: glycan notation: IUPAC condensed, linker removed
# [1] = target: Neu5Ac(a2-6)Gal(b1-3)GlcNAc(b1-3)[Gal(b1-4)GlcNAc(b1-6)]Gal(b1-4)Glc
# Method in brief: (§1)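 From the Consortium for Functional Glycomics database, 3228 arrays were curated, keeping only those whose protein sequence was available. Binding is given as a within-array Z-score averaged across arrays sharing a protein sequence and across linkers. Negative Z-scores can be read as non-binding.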
# [2] = target: Neu5Ac(a2-6)Gal(b1-4)Glc
# Method in brief: as §1
# [3] = target: Neu5Ac(a2-6)Gal(b1-4)GlcNAc
# Method in brief: as §1
# [4] = target: Neu5Ac(a2-6)Gal(b1-4)GlcNAc(b1-2)Man
# Method in brief: as §1
# [5] = target: Neu5Ac(a2-6)Gal(b1-4)GlcNAc(b1-2)Man(a1-3)Man(b1-4)GlcNAc(b1-4)GlcNAc
# Method in brief: as §1
# [6] = target: Neu5Ac(a2-6)Gal(b1-4)GlcNAc(b1-2)Man(a1-3)[Gal(b1-4)GlcNAc(b1-2)Man(a1-6)]Man(b1-4)GlcNAc(b1-4)GlcNAc
# Method in brief: as §1
# [7] = target: Neu5Ac(a2-6)Gal(b1-4)GlcNAc(b1-2)Man(a1-3)[GlcNAc(b1-2)Man(a1-6)]Man(b1-4)GlcNAc(b1-4)GlcNAc
# Method in brief: as §1
# [8] = target: Neu5Ac(a2-6)Gal(b1-4)GlcNAc(b1-2)Man(a1-3)[GlcNAc(b1-4)][Neu5Ac(a2-6)Gal(b1-4)GlcNAc(b1-2)Man(a1-6)]Man(b1-4)GlcNAc(b1-4)GlcNAc
# Method in brief: as §1
# [9] = target: Neu5Ac(a2-6)Gal(b1-4)GlcNAc(b1-2)Man(a1-3)[Man(a1-6)]Man(b1-4)GlcNAc(b1-4)GlcNAc
# Method in brief: as §1
# [10] = target: Neu5Ac(a2-6)Gal(b1-4)GlcNAc(b1-2)Man(a1-3)[Neu5Ac(a2-3)Gal(b1-4)GlcNAc(b1-2)Man(a1-6)]Man(b1-4)GlcNAc(b1-4)GlcNAc
# Method in brief: as §1
# [11] = target: Neu5Ac(a2-6)Gal(b1-4)GlcNAc(b1-2)Man(a1-3)[Neu5Ac(a2-6)Gal(b1-4)GlcNAc(b1-2)Man(a1-6)]Man(b1-4)GlcNAc(b1-4)GlcNAc
# Method in brief: as §1
# [12] = target: Neu5Ac(a2-6)Gal(b1-4)GlcNAc(b1-2)Man(a1-3)[Neu5Ac(a2-6)Gal(b1-4)GlcNAc(b1-2)Man(a1-6)]Man(b1-4)GlcNAc(b1-4)[Fuc(a1-6)]GlcNAc
# Method in brief: as §1
# [13] = target: Neu5Ac(a2-6)Gal(b1-4)GlcNAc(b1-2)Man(a1-6)Man(b1-4)GlcNAc(b1-4)GlcNAc
# Method in brief: as §1
# [14] = target: Neu5Ac(a2-6)Gal(b1-4)GlcNAc(b1-2)Man(a1-6)[Gal(b1-4)GlcNAc(b1-2)Man(a1-3)]Man(b1-4)GlcNAc(b1-4)GlcNAc
# Method in brief: as §1
# [15] = target: Neu5Ac(a2-6)Gal(b1-4)GlcNAc(b1-2)Man(a1-6)[GlcNAc(b1-2)Man(a1-3)]Man(b1-4)GlcNAc(b1-4)GlcNAc
# Method in brief: as §1
# [16] = target: Neu5Ac(a2-6)Gal(b1-4)GlcNAc(b1-2)Man(a1-6)[Man(a1-3)]Man(b1-4)GlcNAc(b1-4)GlcNAc
# Method in brief: as §1
# [17] = target: Neu5Ac(a2-6)Gal(b1-4)GlcNAc(b1-2)[Neu5Ac(a2-6)Gal(b1-4)GlcNAc(b1-4)]Man(a1-3)[GlcNAc(b1-4)][Neu5Ac(a2-6)Gal(b1-4)GlcNAc(b1-2)[Neu5Ac(a2-6)Gal(b1-4)GlcNAc(b1-6)]Man(a1-6)]Man(b1-4)GlcNAc(b1-4)GlcNAc
# Method in brief: as §1
# [18] = target: Neu5Ac(a2-6)Gal(b1-4)GlcNAc(b1-2)[Neu5Ac(a2-6)Gal(b1-4)GlcNAc(b1-4)]Man(a1-3)[GlcNAc(b1-4)][Neu5Ac(a2-6)Gal(b1-4)GlcNAc(b1-4)Man(a1-6)]Man(b1-4)GlcNAc(b1-4)GlcNAc
# Method in brief: as §1
# [19] = target: Neu5Ac(a2-6)Gal(b1-4)GlcNAc(b1-2)[Neu5Ac(a2-6)Gal(b1-4)GlcNAc(b1-6)]Man(a1-6)[Neu5Ac(a2-6)Gal(b1-4)GlcNAc(b1-2)Man(a1-3)][GlcNAc(b1-4)]Man(b1-4)GlcNAc(b1-4)GlcNAc
# Method in brief: as §1
# [20] = target: Neu5Ac(a2-6)Gal(b1-4)GlcNAc(b1-3)Gal(b1-3)GlcNAc
# Method in brief: as §1
# [21] = target: Neu5Ac(a2-6)Gal(b1-4)GlcNAc(b1-3)Gal(b1-4)GlcNAc
# Method in brief: as §1
# [22] = target: Neu5Ac(a2-6)Gal(b1-4)GlcNAc(b1-3)Gal(b1-4)GlcNAc(b1-2)Man(a1-3)[Neu5Ac(a2-6)Gal(b1-4)GlcNAc(b1-3)Gal(b1-4)GlcNAc(b1-2)Man(a1-6)]GalNAc
# Method in brief: as §1
# [23] = target: Neu5Ac(a2-6)Gal(b1-4)GlcNAc(b1-3)Gal(b1-4)GlcNAc(b1-3)Gal(b1-4)GlcNAc
# Method in brief: as §1
# [24] = target: Neu5Ac(a2-6)Gal(b1-4)GlcNAc(b1-3)Gal(b1-4)GlcNAc(b1-3)Gal(b1-4)GlcNAc(b1-2)Man(a1-3)[Neu5Ac(a2-6)Gal(b1-4)GlcNAc(b1-3)Gal(b1-4)GlcNAc(b1-3)Gal(b1-4)GlcNAc(b1-2)Man(a1-6)]GalNAc
# Method in brief: as §1
# [25] = target: Neu5Ac(a2-6)Gal(b1-4)GlcNAc(b1-3)Gal(b1-4)GlcNAc(b1-3)GalNAc
# Method in brief: as §1
# [26] = target: Neu5Ac(a2-6)Gal(b1-4)GlcNAc(b1-3)Gal(b1-4)GlcNAc(b1-3)[Neu5Ac(a2-6)Gal(b1-4)GlcNAc(b1-3)Gal(b1-4)GlcNAc(b1-6)]GalNAc
# Method in brief: as §1
# [27] = target: Neu5Ac(a2-6)Gal(b1-4)GlcNAc(b1-3)Gal(b1-4)GlcNAc(b1-6)[Gal(b1-3)]GalNAc
# Method in brief: as §1
# [28] = target: Neu5Ac(a2-6)Gal(b1-4)GlcNAc(b1-3)Gal(b1-4)[Fuc(a1-3)]GlcNAc(b1-3)Gal(b1-4)[Fuc(a1-3)]GlcNAc
# Method in brief: as §1
# [29] = target: Neu5Ac(a2-6)Gal(b1-4)GlcNAc(b1-3)GalNAc
# Method in brief: as §1
# [30] = target: Neu5Ac(a2-6)Gal(b1-4)GlcNAc(b1-3)[Neu5Ac(a2-6)Gal(b1-4)GlcNAc(b1-6)]GalNAc
# Method in brief: as §1
# [31] = target: Neu5Ac(a2-6)Gal(b1-4)GlcNAc(b1-6)GalNAc
# Method in brief: as §1
# [32] = target: Neu5Ac(a2-6)Gal(b1-4)GlcNAc(b1-6)[Gal(b1-3)GlcNAc(b1-3)]Gal(b1-4)Glc
# Method in brief: as §1
# [33] = target: Neu5Ac(a2-6)Gal(b1-4)GlcNAc(b1-6)[Gal(b1-3)]GalNAc
# Method in brief: as §1
# [34] = target: Neu5Ac(a2-6)Gal(b1-4)GlcNAc6S
# Method in brief: as §1
# [35] = target: Neu5Ac(a2-6)GalNAc
# Method in brief: as §1
# [36] = target: Neu5Ac(a2-6)GalNAc(b1-4)GlcNAc
# Method in brief: as §1
# [37] = target: Neu5Ac(a2-6)GalNAc(b1-4)GlcNAc6S
# Method in brief: as §1
# [38] = target: Neu5Ac(a2-6)GlcNAc(b1-4)GlcNAc
# Method in brief: as §1
binder,measurement,setting,value
B1,glycan array binding signal (z-score),[1],0.058
same,glycan array binding signal (z-score),[2],-0.077
same,glycan array binding signal (z-score),[3],-0.148
same,glycan array binding signal (z-score),[4],-0.082
same,glycan array binding signal (z-score),[5],0.068
same,glycan array binding signal (z-score),[6],0.124
same,glycan array binding signal (z-score),[7],0.051
same,glycan array binding signal (z-score),[8],-0.052
same,glycan array binding signal (z-score),[9],-0.021
same,glycan array binding signal (z-score),[10],-0.114
same,glycan array binding signal (z-score),[11],-0.065
same,glycan array binding signal (z-score),[12],-0.03
same,glycan array binding signal (z-score),[13],-0.045
same,glycan array binding signal (z-score),[14],-0.034
same,glycan array binding signal (z-score),[15],-0.092
same,glycan array binding signal (z-score),[16],-0.059
same,glycan array binding signal (z-score),[17],-0.179
same,glycan array binding signal (z-score),[18],-0.078
same,glycan array binding signal (z-score),[19],-0.119
same,glycan array binding signal (z-score),[20],-0.079
same,glycan array binding signal (z-score),[21],-0.079
same,glycan array binding signal (z-score),[22],-0.06
same,glycan array binding signal (z-score),[23],-0.044
same,glycan array binding signal (z-score),[24],0.358
same,glycan array binding signal (z-score),[25],-0.095
same,glycan array binding signal (z-score),[26],-0.02
same,glycan array binding signal (z-score),[27],-0.046
same,glycan array binding signal (z-score),[28],-0.184
same,glycan array binding signal (z-score),[29],-0.138
same,glycan array binding signal (z-score),[30],-0.056
same,glycan array binding signal (z-score),[31],0.156
same,glycan array binding signal (z-score),[32],-0.057
same,glycan array binding signal (z-score),[33],0.091
same,glycan array binding signal (z-score),[34],-0.106
same,glycan array binding signal (z-score),[35],-0.005
same,glycan array binding signal (z-score),[36],-0.156
same,glycan array binding signal (z-score),[37],-0.15
same,glycan array binding signal (z-score),[38],-0.087

# Reference: the supplement of paper PMC8728848
